In PubChem BioAssay AID1159614 (National Center for Advancing Translational Sciences (NCATS), 2016):
The whole screen tested about 45,000 compounds, of which about 65 (0.1%) were called active. Calls come from the whole dose curve; as a rule, active = well fitted activation curve with a large enough effect; inconclusive = small, poorly fitted or top-dose-only effect; inactive = no such curve, though single readings can be large or run the other way. The list shows a part of the results.

molecular target: Galactocerebrosidase (Homo sapiens) (UniProt P54803); assay: A Novel Cell-Based Assay to Identify Small Molecules for B -Galactocerebrosidase; settings: 145M-Twi-hGALC-G270D cells (Twitcher mouse brain line with human GALC G270D), HMU-beta-Gal fluorescence, 48 h; series mostly up to 57.5 µM; activation: at the top concentration; note: nearly all actives have a fitted effect of over 65% in size; for activation: 0% is about no effect
UniProt P54803, sequence (P54803 whole entry, looked up): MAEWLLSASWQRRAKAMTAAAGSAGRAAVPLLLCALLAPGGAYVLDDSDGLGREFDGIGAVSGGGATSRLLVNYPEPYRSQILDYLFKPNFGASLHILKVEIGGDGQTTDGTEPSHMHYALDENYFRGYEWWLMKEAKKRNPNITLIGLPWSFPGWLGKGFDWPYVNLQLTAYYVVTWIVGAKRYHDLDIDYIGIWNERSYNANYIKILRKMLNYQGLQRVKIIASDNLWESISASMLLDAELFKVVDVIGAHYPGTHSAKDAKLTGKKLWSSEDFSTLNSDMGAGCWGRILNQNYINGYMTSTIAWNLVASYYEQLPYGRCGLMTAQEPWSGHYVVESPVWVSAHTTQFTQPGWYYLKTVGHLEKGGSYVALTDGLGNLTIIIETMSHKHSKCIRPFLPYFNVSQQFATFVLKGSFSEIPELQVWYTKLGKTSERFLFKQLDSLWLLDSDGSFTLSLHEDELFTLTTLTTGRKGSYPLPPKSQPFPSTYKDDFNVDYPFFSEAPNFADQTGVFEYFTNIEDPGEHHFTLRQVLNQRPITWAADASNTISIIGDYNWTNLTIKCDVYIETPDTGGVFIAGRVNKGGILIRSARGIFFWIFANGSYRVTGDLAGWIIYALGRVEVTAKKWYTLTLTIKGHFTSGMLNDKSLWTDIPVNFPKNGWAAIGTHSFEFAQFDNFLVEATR
Outline: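 Brain-derived Twitcher mouse 145M-Twi cells stably expressing human GALC-G270D or wild-type GALC, treated live, then residual GALC activity read by fluorescence of HMU-b-Gal substrate (0.1 mM final) in citrate-phosphate buffer pH 5.2 with sodium taurocholate. Signal increase indicates enhancement.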
Potency is the fitted concentration of half-maximal effect.

SMILES | activation | Potency
Cc1cc(C)cc(N2C(=O)CSC23C(=O)N(Cc2c(F)cccc2Cl)c2ccccc23)c1 (configuration not stated) | inactive: -14.9% | –
CCOC(=O)c1cc(-c2ccccc2)n(CCC(=O)Nc2ccccc2CC)c1C | inactive: -22.5% | –
COc1ccc(N2CCN(S(=O)(=O)c3ccc(-c4coc(C)n4)cc3)CC2)cc1 | inactive: -16.5% | –
CC(=O)N1c2ccc(S(=O)(=O)Nc3ccc(C)c(Cl)c3)cc2CC1C (configuration not stated) | inactive: 7.14% | –
CCOc1ccc(CC(=O)Nc2c(C(=O)c3ccccc3)oc3ccc(Cl)cc23)cc1OCC | inactive: -14.1% | –
CCCCC(CC)CNC(=O)Cc1ccc(-n2c(=O)[nH]c3ccccc3c2=O)cc1 (configuration not stated) | inactive: -7.87% | –
CCCCC12CN3CC(C)(CN(C1)C3c1c[nH]c3ccccc13)C2=O (configuration not stated) | inactive: -8.98% | –
Cc1cccc(CSc2nc3c([nH]c4ccccc43)c(=O)n2C)c1 | inactive: 10.6% | –
CNS(=O)(=O)c1cn(CC(=O)N2CCN(c3ccc(C(C)=O)cc3)CC2)cc1S(=O)(=O)NC | inactive: -4.64% | –
Cc1ccc(NC(=O)C(CC(C)C)N2Cc3ccccc3C2=O)cc1F (configuration not stated) | inactive: -13% | –
CC1=C(C(=O)Nc2cccnc2)C(c2ccc(C)cc2)n2nc(SCc3ccccc3F)nc2N1 (configuration not stated) | inactive: -12.8% | –
Cc1c(CCNC(=O)c2ccc(C(C)(C)C)cc2)sc2nc(-c3ccc(F)cc3)nn12 | inactive: -13.1% | –
COc1cc2c(cc1OC)n(CC(=O)c1cc(C)ccc1C)c(=O)n1nc(CCn3nc(C)cc3C)nc21 | inactive: -2.97% | –
CCc1cc2c(cc3c(=O)n(CCCC(=O)NCc4cccc(Br)c4)ncn32)s1 | inactive: -11.9% | –
Cc1cc(Nc2ccc(F)cc2F)nc(-n2nc(C)cc2C)n1 | inactive: -41% | –
CCc1ccccc1S(=O)(=O)Cc1ccc(C(=O)NCCc2ccc(Cl)cc2)o1 | inactive: -5.22% | –
O=C(Nc1cc(-c2cccc(Cl)c2)nn1-c1ccccc1)c1ccccc1F | inactive: -18.2% | –
CCS(=O)(=O)c1ncc(N(Cc2ccccc2)Cc2ccco2)c(C(=O)Nc2ccccc2C)n1 | inactive: -13.9% | –
CSCCC(NS(=O)(=O)c1ccc2c(c1)oc(=O)n2C)C(=O)NCc1ccc(Cl)cc1 (configuration not stated) | inactive: -20.3% | –
Cc1ccc(C(=O)Nc2cc(-c3cn4cccnc4n3)ccc2C)cc1C | inactive: -3.71% | –
Cc1nnc(NC(=O)CSc2nccn2Cc2ccccc2)s1 | inactive: -13.8% | –
Cc1ccc(C)c(NC(=O)c2nc(S(=O)(=O)Cc3ccc(F)cc3)ncc2Cl)c1 | inactive: -21.3% | –
Cc1cc(F)ccc1Nc1nc2ccc(Cl)cc2n2cnnc12 | inactive: -0.582% | –
CCC(C)(C)NC(=O)C(NS(=O)(=O)c1cccs1)c1ccccc1 (configuration not stated) | inactive: -18% | –

SMILES | activation | Potency
CCOC(=O)c1ccc(-n2c(CCC(=O)O)ccc2-c2ccccc2)cc1O | inactive: -0.177% | –
NCC[C@H](O)C(=O)N[C@@H]1C[C@H](N)[C@@H](O[C@H]2O[C@H](CN)[C@@H](O)[C@H](O)[C@@H]2O)[C@H](O)[C@@H]1O[C@H]1O[C@H](CO)[C@@H](O)[C@H](N)[C@@H]1O | inactive: -7.07% [at 0.46 µM] | –
CC(C)CCNc1nc(Nc2ccccc2)c2cnn(C)c2n1 | inactive: -27.7% | –
O=C(Cc1ccc(Cl)cc1)NCCc1csc2nc(-c3ccccc3F)nn12 | inactive: -9.94% | –
Cc1cc(=O)oc2cc(O)ccc12 | – | active: 28.2 µM
CC(CC(=O)Nc1ccc(F)cc1)S(=O)(=O)c1cc2c3c(c1)CCN3C(=O)CC2 (configuration not stated) | inactive: -16.6% | –
COc1ccc(N2CCN(C(=O)C(CC(C)C)NS(=O)(=O)c3ccc4nc(C)sc4c3)CC2)cc1 (configuration not stated) | inactive: -15.9% | –
CNc1ccc(-c2nc(-c3ccncc3)no2)cc1[N+](=O)[O-] | inactive: 3.47% | –
COC(=O)c1ccccc1NC(=O)CSc1nc2ccccc2nc1Cc1ccc(F)cc1 | inactive: -11.7% | –
Cc1ccc(CNc2cc(C)nc3nc(-c4ccc(C)cc4)nn23)cc1 | inactive: -22.8% | –
O=C(NC1CCCCC1)c1ccc2c(c1)N(Cc1cccc(Cl)c1)C(=O)c1ccccc1S2(=O)=O | inactive: -14.7% | –
COc1ccc(CNC(=O)CCc2c(C)nc3cc(-c4ccc(OC)cc4OC)nn3c2C)cc1 | inactive: -15.6% | –
CCOc1ccc2nc(N3CCCC(C(=O)Nc4ccccc4CC)C3)sc2c1 (configuration not stated) | inactive: -0.619% | –
CCc1ccc(NC(=O)CSc2nc(-c3ccc(C)cc3)nc3c2Cc2c(CO)cnc(C)c2O3)cc1 | inactive: -21.3% | –
CCOC(=O)c1cc(-c2ccc(F)cc2)n(CCC(=O)NC2CCC(C)CC2)c1C (configuration not stated) | inactive: -8.11% | –
Cc1oc(=O)oc1COC(=O)[C@@H]1N2C(=O)[C@@H](NC(=O)[C@H](N)c3ccccc3)[C@H]2SC1(C)C | inactive: -13.8% | –
Cc1cccc(NC(=O)Cn2c(=O)n(CC3CCC(C(=O)NCCc4ccccc4)CC3)c(=O)c3ccccc32)c1 (configuration not stated) | inactive: -10.7% | –
CC(C)=CCNc1ncnc2c1ncn2[C@@H]1O[C@H](CO)[C@@H](O)[C@H]1O | inactive: -12.8% | –
Fc1ccc(Nc2nc(-c3cccc(Cl)c3)c3c(n2)-c2ccccc2OC3)c(F)c1 | inactive: -8.44% | –
Fc1ccc(-c2cc(-c3ccc(F)cc3)c3c(n2)-c2cc(F)ccc2OC3)cc1 | inactive: 4.49% | –
Cc1c(NC(=O)c2cccs2)cccc1-c1nc2cc(Cl)ccc2o1 | inactive: -9.1% | –
CCOc1ccc(NC(=O)c2nc(S(=O)(=O)Cc3ccccc3F)ncc2Cl)cc1 | inactive: -19.3% | –
COc1ccc(S(=O)(=O)n2nc(-c3ccco3)nc2NCc2ccc(C(C)C)cc2)cc1 | inactive: -8.84% | –
